Results as given in the supplement of paper PMC12067093, “Discovery and optimisation of a covalent ligand for TRIM25 and its application to targeted protein ubiquitination” (Chemical Science, 2025).
Of roughly 21,000 targets only a part is listed; those with the largest changes were picked by preference.

Compound: Cc1cc(ccc1-c1ccccc1)C(=O)N1CCCN(CC1)C(=O)CCl [compound 10]
Experiment: probe-labelled cysteine peptide fold change vs DMSO (competition) (log2 fold change); higher = less target engagement (more negative = stronger competition)
Conditions: THP-1, incubation time: 4 h
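Note: competitive profiling in live THP-1 cells: cysteine peptides tagged with an iodoacetamide desthiobiotin (IA-DTB) probe, intensity after compound treatment relative to DMSO-treated cells.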

UniProt Q8N8A2, sequence (Q8N8A2 whole entry, looked up): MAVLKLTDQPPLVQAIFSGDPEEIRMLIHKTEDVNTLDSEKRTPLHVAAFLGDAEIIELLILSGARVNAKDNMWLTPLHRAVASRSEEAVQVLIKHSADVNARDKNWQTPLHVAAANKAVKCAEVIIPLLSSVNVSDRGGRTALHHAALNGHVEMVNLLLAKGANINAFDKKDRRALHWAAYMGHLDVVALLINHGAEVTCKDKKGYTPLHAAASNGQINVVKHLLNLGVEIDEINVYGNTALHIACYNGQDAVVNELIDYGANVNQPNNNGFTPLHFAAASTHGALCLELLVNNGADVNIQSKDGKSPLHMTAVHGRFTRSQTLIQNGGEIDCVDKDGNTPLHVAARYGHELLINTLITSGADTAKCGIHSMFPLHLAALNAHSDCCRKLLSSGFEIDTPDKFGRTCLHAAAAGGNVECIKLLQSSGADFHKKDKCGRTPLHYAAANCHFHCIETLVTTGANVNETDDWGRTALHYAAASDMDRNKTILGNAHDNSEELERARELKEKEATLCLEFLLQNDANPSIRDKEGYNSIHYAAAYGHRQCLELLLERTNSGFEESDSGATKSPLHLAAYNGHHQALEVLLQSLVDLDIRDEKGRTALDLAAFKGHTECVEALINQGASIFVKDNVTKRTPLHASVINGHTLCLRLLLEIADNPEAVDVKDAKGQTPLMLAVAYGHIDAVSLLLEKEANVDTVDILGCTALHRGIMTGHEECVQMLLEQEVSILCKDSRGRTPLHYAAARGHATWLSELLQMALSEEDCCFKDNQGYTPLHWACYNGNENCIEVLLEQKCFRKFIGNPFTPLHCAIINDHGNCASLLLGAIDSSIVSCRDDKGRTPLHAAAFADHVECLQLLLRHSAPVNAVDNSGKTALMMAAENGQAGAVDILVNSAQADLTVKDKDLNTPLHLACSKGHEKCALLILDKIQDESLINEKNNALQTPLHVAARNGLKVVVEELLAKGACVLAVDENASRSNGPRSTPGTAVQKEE
UniProt P55265, sequence (P55265 whole entry, looked up): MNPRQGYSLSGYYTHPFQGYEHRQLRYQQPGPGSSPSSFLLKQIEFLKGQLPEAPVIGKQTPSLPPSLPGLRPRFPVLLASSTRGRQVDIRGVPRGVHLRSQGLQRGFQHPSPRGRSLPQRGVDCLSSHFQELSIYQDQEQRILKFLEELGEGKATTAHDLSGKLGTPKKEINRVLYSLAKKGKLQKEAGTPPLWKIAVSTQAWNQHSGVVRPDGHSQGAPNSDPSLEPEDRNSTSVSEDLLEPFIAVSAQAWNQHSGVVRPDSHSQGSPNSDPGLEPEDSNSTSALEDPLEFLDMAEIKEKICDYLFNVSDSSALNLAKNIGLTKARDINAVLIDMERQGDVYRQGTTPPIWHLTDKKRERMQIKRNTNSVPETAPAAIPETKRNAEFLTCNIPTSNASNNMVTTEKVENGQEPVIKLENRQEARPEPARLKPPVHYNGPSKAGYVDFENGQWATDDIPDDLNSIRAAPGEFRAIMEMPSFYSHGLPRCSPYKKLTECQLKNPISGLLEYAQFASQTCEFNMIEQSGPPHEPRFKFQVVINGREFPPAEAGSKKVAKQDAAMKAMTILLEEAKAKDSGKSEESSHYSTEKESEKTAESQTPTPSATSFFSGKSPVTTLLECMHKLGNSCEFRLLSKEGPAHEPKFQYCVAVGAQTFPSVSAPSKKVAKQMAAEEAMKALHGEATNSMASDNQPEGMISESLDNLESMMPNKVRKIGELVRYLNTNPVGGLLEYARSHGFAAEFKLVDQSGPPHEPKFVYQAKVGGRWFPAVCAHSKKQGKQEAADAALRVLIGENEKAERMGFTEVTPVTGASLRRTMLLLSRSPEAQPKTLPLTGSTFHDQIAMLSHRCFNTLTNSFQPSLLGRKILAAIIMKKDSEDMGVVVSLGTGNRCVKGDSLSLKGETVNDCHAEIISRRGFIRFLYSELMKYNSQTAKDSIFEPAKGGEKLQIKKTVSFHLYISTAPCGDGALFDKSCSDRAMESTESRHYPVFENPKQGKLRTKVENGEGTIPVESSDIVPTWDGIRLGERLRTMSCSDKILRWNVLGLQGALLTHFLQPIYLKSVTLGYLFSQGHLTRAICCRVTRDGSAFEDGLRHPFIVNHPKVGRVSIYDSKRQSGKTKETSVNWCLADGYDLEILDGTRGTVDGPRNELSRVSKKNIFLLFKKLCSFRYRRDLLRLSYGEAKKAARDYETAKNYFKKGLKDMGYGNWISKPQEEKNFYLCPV
UniProt P43353, sequence (P43353 whole entry): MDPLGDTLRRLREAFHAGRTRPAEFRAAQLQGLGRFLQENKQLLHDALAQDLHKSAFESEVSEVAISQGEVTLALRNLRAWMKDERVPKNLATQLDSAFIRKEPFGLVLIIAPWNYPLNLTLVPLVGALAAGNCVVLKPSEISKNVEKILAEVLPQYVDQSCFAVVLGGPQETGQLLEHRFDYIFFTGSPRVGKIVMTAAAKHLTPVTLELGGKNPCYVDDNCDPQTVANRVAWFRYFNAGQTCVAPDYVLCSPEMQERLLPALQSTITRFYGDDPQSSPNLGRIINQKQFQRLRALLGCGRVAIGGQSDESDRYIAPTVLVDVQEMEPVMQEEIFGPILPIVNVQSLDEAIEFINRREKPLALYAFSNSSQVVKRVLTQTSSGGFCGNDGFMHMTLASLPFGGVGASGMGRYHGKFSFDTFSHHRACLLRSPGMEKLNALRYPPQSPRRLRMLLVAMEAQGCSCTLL
UniProt Q8IUR7, sequence (Q8IUR7 whole entry, looked up): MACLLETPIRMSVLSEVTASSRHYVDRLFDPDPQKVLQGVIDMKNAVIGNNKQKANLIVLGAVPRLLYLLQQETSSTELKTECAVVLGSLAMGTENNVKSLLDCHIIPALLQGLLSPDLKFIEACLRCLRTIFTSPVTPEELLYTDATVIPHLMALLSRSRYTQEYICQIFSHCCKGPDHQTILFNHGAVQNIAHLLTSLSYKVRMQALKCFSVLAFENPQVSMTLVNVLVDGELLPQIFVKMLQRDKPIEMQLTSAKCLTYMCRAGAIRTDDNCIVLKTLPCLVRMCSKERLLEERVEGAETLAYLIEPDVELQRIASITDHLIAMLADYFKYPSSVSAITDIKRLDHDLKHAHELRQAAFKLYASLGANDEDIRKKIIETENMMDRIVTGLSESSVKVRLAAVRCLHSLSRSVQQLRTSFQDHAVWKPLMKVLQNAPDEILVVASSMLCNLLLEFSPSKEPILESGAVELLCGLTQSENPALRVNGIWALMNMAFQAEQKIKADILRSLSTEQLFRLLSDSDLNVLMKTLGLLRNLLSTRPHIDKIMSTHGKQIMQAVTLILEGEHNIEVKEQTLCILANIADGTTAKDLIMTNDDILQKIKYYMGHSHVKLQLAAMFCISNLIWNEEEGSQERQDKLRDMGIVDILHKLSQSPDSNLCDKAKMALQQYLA
UniProt O75891, sequence (O75891 whole entry, looked up): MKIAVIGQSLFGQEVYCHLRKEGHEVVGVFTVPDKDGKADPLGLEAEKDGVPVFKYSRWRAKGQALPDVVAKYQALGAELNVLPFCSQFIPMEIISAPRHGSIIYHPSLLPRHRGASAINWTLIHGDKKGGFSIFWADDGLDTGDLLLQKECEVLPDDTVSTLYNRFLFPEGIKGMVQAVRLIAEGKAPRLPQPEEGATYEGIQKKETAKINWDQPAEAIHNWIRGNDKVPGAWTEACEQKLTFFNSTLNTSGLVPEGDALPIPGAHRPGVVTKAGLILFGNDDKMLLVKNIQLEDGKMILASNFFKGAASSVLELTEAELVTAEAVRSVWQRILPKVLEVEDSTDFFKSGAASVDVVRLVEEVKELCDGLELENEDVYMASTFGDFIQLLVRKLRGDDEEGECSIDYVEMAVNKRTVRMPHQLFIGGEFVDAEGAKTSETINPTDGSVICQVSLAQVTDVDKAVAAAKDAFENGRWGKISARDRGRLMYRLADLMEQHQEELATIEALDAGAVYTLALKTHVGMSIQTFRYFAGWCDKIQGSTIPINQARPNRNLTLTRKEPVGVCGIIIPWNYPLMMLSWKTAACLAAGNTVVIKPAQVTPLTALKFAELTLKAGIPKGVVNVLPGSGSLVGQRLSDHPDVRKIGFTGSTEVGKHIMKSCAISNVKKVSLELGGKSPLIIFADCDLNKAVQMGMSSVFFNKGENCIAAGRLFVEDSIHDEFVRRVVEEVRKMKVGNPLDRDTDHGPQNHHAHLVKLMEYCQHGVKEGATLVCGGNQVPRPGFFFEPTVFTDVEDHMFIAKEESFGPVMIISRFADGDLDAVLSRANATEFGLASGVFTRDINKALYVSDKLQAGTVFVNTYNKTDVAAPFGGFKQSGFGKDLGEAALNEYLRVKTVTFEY
UniProt Q9UBL3, sequence (Q9UBL3 whole entry, looked up): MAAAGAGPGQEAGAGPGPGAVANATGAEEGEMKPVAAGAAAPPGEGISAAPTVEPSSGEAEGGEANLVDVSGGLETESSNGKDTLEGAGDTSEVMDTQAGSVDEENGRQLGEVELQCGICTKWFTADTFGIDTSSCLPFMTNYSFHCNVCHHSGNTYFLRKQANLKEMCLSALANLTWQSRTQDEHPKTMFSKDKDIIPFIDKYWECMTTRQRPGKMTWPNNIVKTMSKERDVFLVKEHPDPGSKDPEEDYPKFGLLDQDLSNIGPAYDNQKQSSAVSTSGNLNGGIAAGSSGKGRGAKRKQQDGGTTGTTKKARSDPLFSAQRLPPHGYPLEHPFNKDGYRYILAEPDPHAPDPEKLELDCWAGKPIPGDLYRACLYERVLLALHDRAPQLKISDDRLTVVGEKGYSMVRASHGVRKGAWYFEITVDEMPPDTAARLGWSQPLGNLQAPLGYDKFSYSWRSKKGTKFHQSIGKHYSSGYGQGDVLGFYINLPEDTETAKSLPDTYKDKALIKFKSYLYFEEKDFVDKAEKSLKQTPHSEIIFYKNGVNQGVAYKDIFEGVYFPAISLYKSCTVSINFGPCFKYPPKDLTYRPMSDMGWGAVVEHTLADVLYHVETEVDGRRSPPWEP

**Q.** Which “probe-labelled cysteine peptide fold change” value (10 µM) does the source give for “ALDH1L1_O75891_707_GENCIAAGR (UniProt O75891)” here?
**A.** -1.08

**Q.** What about the “probe-labelled cysteine peptide fold change” value (50 µM) of the same target?
**A.** -1.51

**Q.** Which results are given for “ARMC8_Q8IUR7_168_YTQEYICQIFSHCCK (UniProt Q8IUR7)”?
**A.** probe-labelled cysteine peptide fold change (10 µM): 0.103; probe-labelled cysteine peptide fold change (50 µM): 0.182

**Q.** With “ANKRD50_Q9ULJ7_122_AQDSDTLCVGGFIR (UniProt Q9ULJ7)” as the target, how does the “probe-labelled cysteine peptide fold change” value (10 µM) read?
**A.** -0.908

**Q.** And the “probe-labelled cysteine peptide fold change” value (50 µM)?
**A.** -3.64

**Q.** What does the source list for “ARAP1_Q96P48_995_KCGQTSK (UniProt Q96P48)”?
**A.** probe-labelled cysteine peptide fold change (10 µM): -0.601; probe-labelled cysteine peptide fold change (50 µM): -2.68

**Q.** “ANKFY1_Q9P2R3_34_CALLAAQANK (UniProt Q9P2R3)” was tested. Which “probe-labelled cysteine peptide fold change” value (10 µM) did it give?
**A.** 0.0817

**Q.** And the “probe-labelled cysteine peptide fold change” value (50 µM)?
**A.** -0.181

**Q.** What does the source list for “AP2A2_O94973_134_NPTFMGLALHCIASVGSR (UniProt O94973)”?
**A.** probe-labelled cysteine peptide fold change (10 µM): 0.176; probe-labelled cysteine peptide fold change (50 µM): 0.278

**Q.** What does the source list for “ADAR_P55265_630_LGNSCEFR (UniProt P55265)”?
**A.** probe-labelled cysteine peptide fold change (10 µM): 0.0378; probe-labelled cysteine peptide fold change (50 µM): -0.188

**Q.** Which results are given for “ADSL_P30566_180_CCLWIQDLCMDLQNLKR (UniProt P30566)”?
**A.** probe-labelled cysteine peptide fold change (10 µM): -0.00936; probe-labelled cysteine peptide fold change (50 µM): -0.198

**Q.** For “ANKRD44_Q8N8A2_834_FIGNPFTPLHCAIINDHGNCASLLLGAIDSSIVSCRDDK (UniProt Q8N8A2)”, which “probe-labelled cysteine peptide fold change” value (10 µM) is on record?
**A.** -0.206

**Q.** And the “probe-labelled cysteine peptide fold change” value (50 µM)?
**A.** -0.433

**Q.** For “ASH2L_Q9UBL3_362_YILAEPDPHAPDPEKLELDCWAGKPIPGDLYR (UniProt Q9UBL3)”, which “probe-labelled cysteine peptide fold change” value (10 µM) is on record?
**A.** -0.239

**Q.** And the “probe-labelled cysteine peptide fold change” value (50 µM)?
**A.** -0.486

**Q.** Which results are given for “AGL_P35573_957_NDLGHPFCNNLR (UniProt P35573)”?
**A.** probe-labelled cysteine peptide fold change (10 µM): 0.0681; probe-labelled cysteine peptide fold change (50 µM): 0.0491

**Q.** What does the source list for “ANXA2P2_A6NMY6_9_STVHEILCK<|>ANXA2_P07355_9_STVHEILCK (UniProt P07355+A6NMY6)”?
**A.** probe-labelled cysteine peptide fold change (10 µM): -0.0855; probe-labelled cysteine peptide fold change (50 µM): -0.241

**Q.** How did the “probe-labelled cysteine peptide fold change” value (10 µM) turn out when “ALDH3B1_P43353_162_ILAEVLPQYVDQSCFAVVLGGPQETGQLLEHR (UniProt P43353)” was run?
**A.** 0.256

**Q.** What about the “probe-labelled cysteine peptide fold change” value (50 µM) of the same target?
**A.** -0.223
